Laboratory results published in article PMC12136788.
The other results are listed elsewhere or left out.

B1: chr8:143915815:143915916:-|3pUTR|ENSG00000178209|msi1|total|mutant (ssRNA)
RNA: GGGAGUUCUACAGUCCGACGAUCGCCAGGUGCCUUGGAGGGUCCCAAGCUGGGCCCCAGCCCACCCUCCUGUCUUCCCAGGGCCGCCCGCCUGCCAGUCCCCGCUGCACAGGGCAGCUGGGCCCAACCCUGUCUGCCGAGGGCCAACAGAGGAUUGAGCAUCA
B2: chr7:77779054:77779164:+|CDS|ENSG00000187257|unk|FALSE|unique (ssRNA)
RNA: GGGAGUUCUACAGUCCGACGAUCUAAAUUUGAAAAUAGCAACAAAGAUUUAAAGGAAGAAUUGUGCCCUGGAAAUCUAAGUCUAGUUGAUACAAGGCAACACAGUUCAGCACAUUCAAAUCAAGAUAAAAAAGACGAUGACAUCAACAGAGGAUUGAGCAUCA
B3: chr17:18209558:18209659:+|3pUTR|ENSG00000091542|msi1|total|mutant (ssRNA)
RNA: GGGAGUUCUACAGUCCGACGAUCGGCCGCUUCUAUCCACUCAGAUCCUGGAAGGCAGCAAGGUUUUGUGGAUCCCGAUUCAUCCGGAAUGUCUUCUUGUCAGCCAGGCCAGGACCCGGGCUUGCCAAGAGCAGAGGCCCUCCCCAACAGAGGAUUGAGCAUCA
B4: chr15:90931683:90931944:-|CDS|ENSG00000184508|control|control|control (ssRNA)
RNA: GGGAGUUCUACAGUCCGACGAUCGACAAGACUCUGCCCAAGCUGGAGAGAAAGAGGCUGCAGGUGGAGCAAGCGCCCCACAGUAGCCCCGGGGCCAAACUGGUGAAGCUGGCAGACAAGCUGUACAAUCUGAGGGACCUGAAUCAACAGAGGAUUGAGCAUCA
B5: chr7:20412070:20412171:+|3pUTR|ENSG00000105855|msi1|total|mutant (ssRNA)
RNA: GGGAGUUCUACAGUCCGACGAUCCUUUUUUUUUAUAAUAAACUUCCAAGAUUUGCUGUCUUCCAGCACUUGAGUUAAAGUACCCGAUACUGCAUUUUGAUGAAGACUAACCCCAUCUCAUAUUCUACCCUAAAGAGAACUGAACAACAGAGGAUUGAGCAUCA
B6: chr7:88197266:88197367:+|3pUTR|ENSG00000008277|unk|total|mutant (ssRNA)
RNA: GGGAGUUCUACAGUCCGACGAUCCAAAACAUGUGAUAUCCCUUUAACCUGUGCACAGUCUGGAGGCAGUUUUAUUGAGUGAGCCGUUGAGUGAGAGAACAAAAUGCCCAGCAAAACUUCUGGCCUCCACAGUUUGCUGAUGCACAACAGAGGAUUGAGCAUCA
B7: chr3:122768741:122768856:-|CDS|ENSG00000169087|unk|FALSE|unique (ssRNA)
RNA: GGGAGUUCUACAGUCCGACGAUCACAUGUAAUUACGUAGAAGCUACACUCGAAGAGUUUCUGACCUGGAACUGUGACCAGUCUAGUAUUUCUGGACCAUUUAGAGAUUAUGACCAUUCCAAGUUCUGGGCUUAUGCUGACUAUCAACAGAGGAUUGAGCAUCA
B8: chr1:17067826:17067927:-|3pUTR|ENSG00000117115|msi1|FALSE|unique (ssRNA)
RNA: GGGAGUUCUACAGUCCGACGAUCCCAGAUUCAUUCCCUGGCUCCAACUGAAAAGACUCAGUUUCAAUCGUUAAAAGUUCCUUUAGGGCCAGAAGAAUAAAUGAAUUAUAAUCCCAUUUUGAAGAACCGAUUUAUAACCAAUGACAACAGAGGAUUGAGCAUCA
B9: ENSG00000124766:be:win_201|CDS|ENSG00000124766|bound_else_gene|NA|bound_elsewhere_windowed (ssRNA)
RNA: GGGAGUUCUACAGUCCGACGAUCGGUGUGGUCGCAGAUCGAGCGGCGCAAGAUCAUGGAGCAGUCGCCCGACAUGCACAACGCCGAGAUCUCCAAGCGGCUGGGCAAACGCUGGAAGCUGCUCAAAGACAGCGACAAGAUCCCCAACAGAGGAUUGAGCAUCA
B10: chr10:62094764:62094865:+|3pUTR|ENSG00000150347|msi1|total|mutant (ssRNA)
RNA: GGGAGUUCUACAGUCCGACGAUCGAUGAACUCCCCAACCCACUGUGCCCCUCCCGCAACACUACCAGCCGACUUCCGAACCACCGUUAACUAAGUCUUUUACCUCUGAGAUACUUAAUUCUGGGAAAAUUGGUGACAAUUUUCCAACAGAGGAUUGAGCAUCA
B11: chr17:75064992:75065093:+|3pUTR|ENSG00000180901|msi1|FALSE|unique (ssRNA)
RNA: GGGAGUUCUACAGUCCGACGAUCAGGCGCUUGUCCCUGUCUGCUUUCCUGGGGCAUGCCUGAUCAGCGUGGGCUGGAGCUCCUAGACCAACCCCAGCUUUCUCACCAGGUUCAGCAAGGAGGCCUGGGGGUCAGACACCAAUGCAACAGAGGAUUGAGCAUCA
B12: chr3:170392585:170392686:+|3pUTR|ENSG00000136603|msi1|FALSE|bound_elsewhere (ssRNA)
RNA: GGGAGUUCUACAGUCCGACGAUCUACAUUUUCCAAAUGAAUGAAAAUGUAUGUUUCUUUGUACUUUUUUAAAAAAAUCAGCUUAGUAACAAUACUAUAUGGUUUCAACUAGUAGGUAAUCUGCUUAUAUUUCUAAUGCAAACUCAACAGAGGAUUGAGCAUCA
B13: ENSG00000070961:be:win_251|CDS|ENSG00000070961|bound_else_gene|NA|bound_elsewhere_windowed (ssRNA)
RNA: GGGAGUUCUACAGUCCGACGAUCUGUUUGGAAAGAAUUUUAUACCUCCUAAAAAGCCAAAAACCUUUCUUCAAUUAGUAUGGGAAGCAUUACAAGAUGUCACUUUAAUUAUAUUAGAAAUUGCAGCCAUAGUAUCAUUGGGCCCAACAGAGGAUUGAGCAUCA
B14: chr1:180199467:180199568:+|3pUTR|ENSG00000116260|msi1|total|mutant (ssRNA)
RNA: GGGAGUUCUACAGUCCGACGAUCCACAGGAACAAUUUCCUCAAGGAGACAGUGGCAUGGAGCUUUGAAAGACGAGCCGGUGUCCGCAAGGAAAUAAGGAGGAACGGGGGUUACGGGCAGAGGAGAAAGCACAUGCCAAGUCAGCAACAGAGGAUUGAGCAUCA

target: MSI1 full-length (mouse, UniProt Q61474 1-362); test: nsRBNS (natural sequence RNA bind-n-seq); RBNS binding buffer (assumed for nsRBNS): 25 mM Tris pH 7.5, 150 mM KCl, 3 mM MgCl2, 0.01% Triton X-100, 500 ug/ml BSA, 20 U/ml SUPERase-In, 4 C; UNK is unkempt and MSI1 is Musashi-1; names of the RNAs are library labels; protein concentration not given here; high values mean tight binding
Sequence of UniProt Q61474 (Q61474 whole entry): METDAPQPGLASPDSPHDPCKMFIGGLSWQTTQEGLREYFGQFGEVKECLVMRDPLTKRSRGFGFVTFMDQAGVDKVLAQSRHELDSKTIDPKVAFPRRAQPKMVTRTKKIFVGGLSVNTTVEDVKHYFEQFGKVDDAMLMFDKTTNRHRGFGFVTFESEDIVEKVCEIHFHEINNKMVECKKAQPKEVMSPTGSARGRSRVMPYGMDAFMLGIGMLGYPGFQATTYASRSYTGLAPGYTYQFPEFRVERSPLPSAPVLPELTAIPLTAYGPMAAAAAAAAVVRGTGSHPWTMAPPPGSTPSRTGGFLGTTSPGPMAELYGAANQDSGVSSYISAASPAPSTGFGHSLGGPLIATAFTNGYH

| Binder | binding signal |
| --- | --- |
| B1 | 0.457 enrichment R |
| B2 | 1.22 enrichment R |
| B3 | 0.486 enrichment R |
| B4 | 0.446 enrichment R |
| B5 | 0.673 enrichment R |
| B6 | 0.524 enrichment R |
| B7 | 0.941 enrichment R |
| B8 | 0.642 enrichment R |
| B9 | 0.355 enrichment R |
| B10 | 1 enrichment R |
| B11 | 0.592 enrichment R |
| B12 | 2.89 enrichment R |
| B13 | 17.2 enrichment R |
| B14 | 0.462 enrichment R |
